Experimental data published in publication PMC12136788.
The other results are listed elsewhere or left out.

B1: ENSG00000174437:stop:overlap|stop_codon|ENSG00000174437|stop_codon|NA|stop_codon (ssRNA)
RNA: GGGAGUUCUACAGUCCGACGAUCAUGAGACGCUCAAGUUUGUGGCCCGCAACUACCUGGAACCUGUUCUUAGCUCAGAACUUUAGUUGUACUCUGCUUGAGGGGAAGAAGGCUCCUGCUCUGCUGUCAAUACUGGAGUAACCGCAACAGAGGAUUGAGCAUCA
B2: chr4:54297753:54297953:+|3pUTR|ENSG00000134853|msi1|total|mutant (ssRNA)
RNA: GGGAGUUCUACAGUCCGACGAUCUUUUUAUGAUGACAAUCAAAGCCGGCCUGAGAAACACUAUUUGUGACUUUUUAAACGAUCCGUGAUGUCCUUAAAAUGUGGUCUGCCAAUCUGUACAAAAUGGUCCUAUUUUUGUGAAGACAACAGAGGAUUGAGCAUCA
B3: chr7:124031896:124032004:-|CDS|ENSG00000234224|unk|FALSE|unique (ssRNA)
RNA: GGGAGUUCUACAGUCCGACGAUCUACCCGCUCAAUUUUAUGGGCCUCAUCACCCUGAUGUAUUUACCUGGCUGGAUAUUCCUUAGUGUGUACCAGGACCUAAUUUCCAACGUGUUGUGGAGGGUGCAGUACGUACCAGCUAACCAACAGAGGAUUGAGCAUCA
B4: chr1:94529602:94529703:-|3pUTR|ENSG00000117525|msi1|FALSE|unique (ssRNA)
RNA: GGGAGUUCUACAGUCCGACGAUCUGGAAGGAAAUUGGGUGCAUUUCUAGGACUUUUCUAACAUAUGUCUAUAAUAUAGUGUUUAGGUUCUUUUUUUUUUCAGGAAUACAUUUGGAAAUUCAAAACAAUUGGCAAACUUUGUAUCAACAGAGGAUUGAGCAUCA
B5: chr22:21448335:21448436:+|3pUTR|ENSG00000169635|unk|FALSE|bound_elsewhere (ssRNA)
RNA: GGGAGUUCUACAGUCCGACGAUCGCAGUCCUGGCCCCCGGCCACUGUCUCGGGGCCCACCUCUCGCCCCUCAUCUUGGUAAUUAGCCAGCCUCAGAUACUUCUGUGGGCCCUGAAGUGGGCUCUCAAGGUCAGACCAAGGUUGCAACAGAGGAUUGAGCAUCA
B6: chr7:108502517:108502634:-|CDS|ENSG00000135241|unk|total|mutant (ssRNA)
RNA: GGGAGUUCUACAGUCCGACGAUCAUUAUUCCAUAUUUAUUACGACUGAGACAAAUUAAGGAUGAAACUCUUCAGGCUGCAGUCCGAGAAAUUUUGGCCCUAAUUGGCUAUGUGGAUCCAGUGAAAGGGAGAGGAAUCCGAAUUCAACAGAGGAUUGAGCAUCA
B7: chr9:128633378:128633479:+|3pUTR|ENSG00000197694|msi1|total|mutant (ssRNA)
RNA: GGGAGUUCUACAGUCCGACGAUCCUUGCUGCAUGUCCGCUCCUCUGUGUGCUCUCACUUUCCACUGUAACCUUAAGCCUGCUCCGCUUGGAAUAAGACUCCGGAGAAAAUGGUGCUUCACUAACCCGCUUCCGGUCCAGUCACCAACAGAGGAUUGAGCAUCA
B8: chr8:103229222:103229323:+|3pUTR|ENSG00000164929|unk|FALSE|unique (ssRNA)
RNA: GGGAGUUCUACAGUCCGACGAUCUAAUUUUCUAGUAUGUCUUGAAACAUGUUCAUCUGGAAGUAUUUUCCUCCAAAGUAAUGUAGCAUGAUUUUUCAAGGAUUGUUAACAUGCCUGGGAUUGGGAAAGAUAGGACUAAAGUUGCAACAGAGGAUUGAGCAUCA
B9: chr16:18841627:18841728:-|CDS|ENSG00000157106|msi1|total|mutant (ssRNA)
RNA: GGGAGUUCUACAGUCCGACGAUCUACAAUUAAUCGCCAAGAAACACCCCGGUUCCAUGCUCGACACUAUUCUGUAACACCACCCGGAACAAGAUCAGGACUAAUCCAGUGGGCCGAUGGAGCCACACCCUUAUUUGGUCUUUACAACAGAGGAUUGAGCAUCA
B10: chr5:6668475:6668576:+|3pUTR|ENSG00000145545|unk|FALSE|unique (ssRNA)
RNA: GGGAGUUCUACAGUCCGACGAUCAUUUUUUCUAAUUUCAAAUUUACCUCUUUUGGCUAUGUCUUGCCAAGUGUGUAUGAGACUAGACUUUACAACUGUCUUUGAUGGCAUUUUCAGAACAAUAAAUGUCACAAUCCCUUCUAUCAACAGAGGAUUGAGCAUCA
B11: chr4:57031156:57031257:-|3pUTR|ENSG00000163453|msi1|total|mutant (ssRNA)
RNA: GGGAGUUCUACAGUCCGACGAUCAUAACUACAUUACCUGUUCUUGCCUAAUAAGUUUCUUUUAAUCCAAUCCACUAACACUUCCGUUAUAUUCACUGGUUUUACACAGAGAAAUACAAAAUAAAGAUCACACAUCAAGACUAUCAACAGAGGAUUGAGCAUCA
B12: ENSG00000198589:be:win_1001|CDS|ENSG00000198589|bound_else_gene|NA|bound_elsewhere_windowed (ssRNA)
RNA: GGGAGUUCUACAGUCCGACGAUCUCAACACUAGCGAUACCUUUGACAAAUGUUUCCUGGGCUCAUCAGAAACAGCAGAUGCUAAUAGAGUAUUCUGUGGUCAGAUGACUGCAGUUUACCUUUUCAGUGAAGCUCUAAAUGCAGCAACAGAGGAUUGAGCAUCA
B13: chr9:6012816:6012917:-|CDS|ENSG00000137040|unk|total|mutant (ssRNA)
RNA: GGGAGUUCUACAGUCCGACGAUCGGGAUUGUGCAUAUUUGAUGACAUCACCGAGCACUGCAGUCCAACUUCAUUUAAAUAUGCCGAAUAUUUUCGGUGGCCAAUGCUACUAAAUAUGCGAGAUAACAACCCUGAAGUCAGGCACAACAGAGGAUUGAGCAUCA
B14: ENSG00000136451:be:win_1651|3pUTR|ENSG00000136451|bound_else_gene|NA|bound_elsewhere_windowed (ssRNA)
RNA: GGGAGUUCUACAGUCCGACGAUCAUGAAAUUGGGAGAUUUUAUUACAUUAGUUAAUAAGAGUGUGGUAGCAUUUUUCUCCAAUUUGGCUGGGAUUAUUCAAAGUAGGGUGUGUAUGUAACUUAUCACUGGACCACUUUAGUUUCAACAGAGGAUUGAGCAUCA

These binders were tested against MSI1 full-length (mouse, UniProt Q61474 1-362) (assay: nsRBNS (natural sequence RNA bind-n-seq); RBNS binding buffer (assumed for nsRBNS): 25 mM Tris pH 7.5, 150 mM KCl, 3 mM MgCl2, 0.01% Triton X-100, 500 ug/ml BSA, 20 U/ml SUPERase-In, 4 C; UNK is unkempt and MSI1 is Musashi-1; names of the RNAs are library labels; protein concentration not given here; high values mean tight binding).
Sequence of UniProt Q61474 (Q61474 whole entry): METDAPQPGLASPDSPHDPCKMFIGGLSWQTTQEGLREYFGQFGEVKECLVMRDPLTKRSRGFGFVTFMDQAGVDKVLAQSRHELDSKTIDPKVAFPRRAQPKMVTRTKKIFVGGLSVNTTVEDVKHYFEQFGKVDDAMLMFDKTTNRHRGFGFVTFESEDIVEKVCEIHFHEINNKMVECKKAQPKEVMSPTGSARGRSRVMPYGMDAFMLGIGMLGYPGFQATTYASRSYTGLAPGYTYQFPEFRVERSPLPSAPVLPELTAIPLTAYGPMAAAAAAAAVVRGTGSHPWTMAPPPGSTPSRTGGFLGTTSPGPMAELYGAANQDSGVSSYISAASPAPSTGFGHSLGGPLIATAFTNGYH

Row | Binder | binding signal
1 | B1 | 0.381 enrichment R
2 | B2 | 0.286 enrichment R
3 | B3 | 0.531 enrichment R
4 | B4 | 9.56 enrichment R
5 | B5 | 0.557 enrichment R
6 | B6 | 0.499 enrichment R
7 | B7 | 0.462 enrichment R
8 | B8 | 0.402 enrichment R
9 | B9 | 0.505 enrichment R
10 | B10 | 0.3 enrichment R
11 | B11 | 1.43 enrichment R
12 | B12 | 0.431 enrichment R
13 | B13 | 0.287 enrichment R
14 | B14 | 2.18 enrichment R
